Reference: US20250333541A1, “ANTIBODY, AND DRUG CONJUGATE AND USE THEREOF” (EVOPOINT BIOSCIENCES CO., LTD., priority 2022, published 2025)
Substitutions are numbered along the chain they refer to.

B1: 2B12B10-hz1 (antibody)
heavy: EVQLVESGGGLVQPGGSLRLSCAASGFAFSDSGMHWVRQAPGKGLEWVAYISRDSNTIYYADSVKGRFTISRDNAKNSLYLQMNSLRAEDTAVYYCGRRYYGDYFDYWGQGTLVTVSS[sequence of human IgG1 constant region omitted]
light: DIVLTQSPATLSLSPGERATLSCRASQRVTNYLHWYQQKPGQSPRLLIKYASQSISGIPARFSGSGSGTDFTLTISSLEPEDFAVYFCQQSYNWPLTFGQGTKVEIKRTVAAPSVFIFPPSDEQLKSGTASVVCLLNNFYPREAKVQWKVDNALQSGNSQESVTEQDSKDSTYSLSSTLTLSKADYEKHKVYACEVTHQGLSSPVTKSFNRGEC
B2: 27H8H3-hz1 (antibody)
heavy: QVQLVQSGAEVKKPGASVKVSCKASGYTFTTYWMHWVRQAPGQGLEWMGMIDPSDSYTSYAQKFQGRVTLTVDTSTSTAYMELSSLRSEDTAVYYCTRGSGPGLFAYWGQGTLVTVSS[sequence of human IgG1 constant region omitted]
light: DIQETQSPSSLSASVGDRVTITCRASQGISNYLNWYQQKPGKAPKLLIYHTSRLHSGVPSRFSGSVSGTDFTLTISSLQPEDFATYFCQQGNTLPYTFGQGTKVEIKRTVAAPSVFIFPPSDEQLKSGTASVVCLLNNFYPREAKVQWKVDNALQSGNSQESVTEQDSKDSTYSLSSTLTLSKADYEKHKVYACEVTHQGLSSPVTKSFNRGEC
B3: 30G11B7 (conjugate)
heavy: B1 heavy with Q13K, A28T, S32Y, H35F, D54G, N56T, Y95F, G97T
light: EIVLTQSPDFQSVTPKEKVTITCRASQSISNYLHWYQQKPDQSPKLLIKYASQSISGVPSRFSGSGSGTDFTLTINSLEAEDAATYFCQQSYNWPLTFGQGTKVEIKRTVAAPSVFIFPPSDEQLKSGTASVVCLLNNFYPREAKVQWKVDNALQSGNSQESVTEQDSKDSTYSLSSTLTLSKADYEKHKVYACEVTHQGLSSPVTKSFNRGEC
B4: 22F11H5-hz1 (antibody)
heavy: B2 heavy with K13Q, S59T, T97A
light: B2 light with G28D, S30R, H55Q, V66G, F71Y, F87Y, T93M, L94P
B5: 30G11B7-hz1-B81: ADC of antibody 30G11B7-hz1 with toxin-Linker B81 (DL-01), prepared by the TF-ADC (DAR8) method (conjugate)
heavy: B1 heavy with Q13K, A28T, S32Y, H35F, D54G, N56T, Y95F, G97T
light: B3 light
B6: 22F11H5-hz1-B81: ADC of antibody 22F11H5-hz1 with toxin-Linker B81 (DL-01), prepared by the TF-ADC (DAR8) method (conjugate)
heavy: B2 heavy with K13Q, S59T, T97A
light: B2 light with G28D, S30R, H55Q, V66G, F71Y, F87Y, T93M, L94P
B7: 2B12B10-hz1-B81: ADC of antibody 2B12B10-hz1 with toxin-Linker B81 (DL-01), prepared by the TF-ADC (DAR8) method (conjugate)
heavy: B1 heavy
light: B1 light
B8: 27H8H3-hz1-B81: ADC of antibody 27H8H3-hz1 with toxin-Linker B81 (DL-01), prepared by the TF-ADC (DAR8) method (conjugate)
heavy: B2 heavy
light: B2 light
B9: 30G11B7-hz1 (antibody)
heavy: B1 heavy with Q13K, A28T, S32Y, H35F, D54G, N56T, Y95F, G97T
light: B3 light

test system: coagulation initiated by TF on the cell surface (MDA-MB-231 cells); test: Effect on coagulation initiated by TF-positive cells in human plasma; assay type: cell-based; details: combining the results of the two experiments

| Molecule | effect on human coagulation (in words) |
| --- | --- |
| B1 | least effect on human coagulation |
| B2 | least effect on human coagulation |

test system: subcutaneous KYSE520 xenograft; test: In vivo efficacy in subcutaneous KYSE520 xenograft; design: species or system Balb/c Nude mice; details: after the conjugation with B81

| Molecule | anti-tumor effects in mice (in words) |
| --- | --- |
| B3 | good anti-tumor effects |
| B4 | good anti-tumor effects |
| B2 | good anti-tumor effects |

same assay, conditions: first experiment, 1 mg/kg, i.v., QW*3

| Molecule | TGI [%] |
| --- | --- |
| B5 | 62.6 |
| B6 | 74.7 |

same assay, conditions: first experiment, 3 mg/kg, i.v., QW*3

| Molecule | TGI [%] |
| --- | --- |
| B5 | 91.8 |
| B6 | 91.4 |

same assay, conditions: second experiment, 1 mg/kg, i.v., QW*3

| Molecule | TGI [%] |
| --- | --- |
| B7 | 41.4 |
| B8 | 52.8 |

test system: TF low/medium-expressing cell line NCI-H358; test: Flow cytometry cell binding, NCI-H358; assay type: cell-based; details: not given

| Molecule | NCI-H358 EC50 [µg/mL] |
| --- | --- |
| B1 | 0.1874 |
| B9 | 0.1451 |
| B4 | 0.06709 |
| B2 | 0.09906 |

target: T1, TF antigen (Homo sapiens, UniProt P13726); test: Affinity ELISA before and after conjugation with B81; assay type: binding; details: antibody before and after conjugation with B81 (DL-01), DAR8 method
T1 construct: with the extracellular segment of aa 33-aa 251; His; made in house; host or cells: HEK293-EBNA
T1 sequence (P13726 33-251): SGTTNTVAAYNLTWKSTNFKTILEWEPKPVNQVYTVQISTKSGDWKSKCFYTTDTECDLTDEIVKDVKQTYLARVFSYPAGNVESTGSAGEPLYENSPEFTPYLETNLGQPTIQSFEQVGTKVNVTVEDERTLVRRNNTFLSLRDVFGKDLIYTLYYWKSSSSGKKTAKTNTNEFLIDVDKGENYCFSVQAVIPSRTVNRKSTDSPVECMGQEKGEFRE

| Molecule | EC50 [µg/mL] |
| --- | --- |
| B1 | 0.00665 |
| B5 | 0.00775 |
| B7 | 0.00376 |
| B9 | 0.00768 |
| B4 | 0.00515 |
| B8 | 0.00343 |
| B6 | 0.00883 |
| B2 | 0.00313 |

target: T2, h.TF-His (Homo sapiens, UniProt P13726); test: Antigenic protein-based ELISA on human TF-His; assay type: binding; details: coated human TF-his protein
T2 construct: with the extracellular segment of aa 33-aa 251; His; made in house; host or cells: HEK293-EBNA
T2 sequence (P13726 33-251): as above

| Molecule | h.TF-His EC50 [µg/mL] |
| --- | --- |
| B1 | 0.006724 |
| B9 | 0.007912 |
| B4 | 0.008577 |
| B2 | 0.008147 |

same assay, conditions: to human/cynomolgus TF-his and TF-positive cells

| Molecule | binding activity (in words) |
| --- | --- |
| B1 | good binding activity |
| B9 | good binding activity |
| B4 | good binding activity |
| B2 | good binding activity |

test system: c.TF-His; test: Dynamic affinity by ForteBio, cynomolgus TF-His; assay type: binding, cynomolgus monkey; details: not given

| Molecule | ka [M⁻¹ s⁻¹] | kdis [s⁻¹] |
| --- | --- | --- |
| B1 | 344000 | 0.0116 |
| B9 | 364000 | 0.053 |
| B4 | 324000 | 0.00411 |
| B2 | 295000 | 0.0125 |

test system: NCI-H358 cells; test: Endocytic activity by flow cytometry (FACS); assay type: cell-based; details: not given

| Molecule | endocytosis rate compared with reference antibody (in words) |
| --- | --- |
| B1 | substantially comparable to that of the reference antibody |
| B9 | substantially comparable to that of the reference antibody |
| B4 | substantially comparable to that of the reference antibody |
| B2 | superior to that of the reference antibody |

test system: TF antigen-positive NCI-H358 cells; test: Cell-based ELISA on NCI-H358 cells; details: fixed NCI-H358 cells

| Molecule | NCI-H358 EC50 [µg/mL] |
| --- | --- |
| B1 | 0.003877 |
| B9 | 0.004727 |
| B4 | 0.01195 |
| B2 | 0.03479 |

target: T2, h.TF-His; test: Dynamic affinity by ForteBio, human TF-His; assay type: binding; details: not given

| Molecule | ka [M⁻¹ s⁻¹] | kdis [s⁻¹] |
| --- | --- | --- |
| B1 | 209000 | 0.00289 |
| B9 | 197000 | 0.00506 |
| B4 | 302000 | 0.00296 |
| B2 | 273000 | 0.0116 |

test system: not listed separately; test: Serum stability in human serum; assay type: in vitro ADME; details: 20 μg/mL, 37° C., 14 days, ELISA

| Molecule | change in affinity after storage in human serum |
| --- | --- |
| B4 | no significant change in affinity |
| B2 | no significant change in affinity |

test system: TF-positive tumor cells KYSE520; test: In vitro killing activity assay on ADCs; assay type: cell-based; details: after the conjugation with B81, 120 h, CCK8

| Molecule | killing IC50 compared with reference antibody ADC (in words) |
| --- | --- |
| B1 | substantially comparable to that of the reference antibody ADC |
| B9 | substantially comparable to that of the reference antibody ADC |
| B4 | substantially comparable to that of the reference antibody ADC |
| B2 | substantially comparable to that of the reference antibody ADC |

test system: TF high-expressing cell line KYSE520; test: Flow cytometry cell binding, KYSE520; assay type: cell-based; details: not given

| Molecule | KYSE520 EC50 [µg/mL] |
| --- | --- |
| B1 | 0.1403 |
| B9 | 0.1383 |
| B4 | 0.0357 |
| B2 | 0.05943 |

test system: not listed separately; test: Antibody hydrophilicity/hydrophobicity assay by HIC; assay type: physicochemical; details: retention on hydrophobic chromatography column

| Molecule | HIC [min] |
| --- | --- |
| B1 | 12.56 |
| B9 | 12.02 |
| B4 | 10.89 |
| B2 | 10.43 |

test system: c.TF-His; test: Antigenic protein-based ELISA on cynomolgus monkey TF-His; assay type: binding; details: coated cynomolgus monkey TF-his protein

| Molecule | c.TF-His EC50 [µg/mL] |
| --- | --- |
| B1 | 0.01363 |
| B9 | 0.02079 |
| B4 | 0.01141 |
| B2 | 0.01137 |
